{"source": "PubChem BioAssay AID1345083", "about": "(National Center for Advancing Translational Sciences (NCATS), 2018)", "note": "About 6,200 (6.6%) of roughly 94,000 compounds were called active. This list was built around the results that the source calls inconclusive (neither active nor inactive); the mix of calls is not that of the screen. Calls come from the whole dose curve; as a rule, active = well fitted inhibition curve with a large enough effect; inconclusive = small, poorly fitted or top-dose-only effect; inactive = flat fitted curve, though single readings scatter. Potencies of inconclusive entries are doubtful fits and often do not repeat. % is set by controls: 0 for no effect and ±100 for the full control effect; potency is the fitted concentration of half-maximal effect; tags give direction and shape of the fitted curve.", "data": [{"experiment": "Cytotoxic Profiling in HEK 293 Cell Line of Diverse Libraries Using Quantitative High-Throughput Screening; note: nearly all actives have a fitted effect of over 60% in size", "conditions": "HEK 293 viability, ATP luminescence (CellTiter-Glo), 48-72 h; activity change, negative = cytotoxicity: at 115 µM (top of the series) unless noted; series mostly up to 115 µM", "how_it_was_run": "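Pintool-delivered compounds were incubated with HEK 293 cells (250 cells/well) at 37 degree Celsius for 48 or 72 hr. ATP-dependent luminescence (CellTiter-Glo) then reported remaining viable cells.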", "values": [{"smiles": "O=C(NCc1ccccc1)c1ccc2nnc(-c3cc(C(F)(F)F)cc(C(F)(F)F)c3)n2c1", "Potency": "active: 39.8 µM"}, {"smiles": "CCc1cn[nH]c1C1CCCN(C(=O)c2cccnc2SC)C1", "note": "(configuration not stated)", "outcome": "inactive"}, {"smiles": "CC(NC(=O)c1csc2nc(-c3cccc(C(F)(F)F)c3)cn12)c1ccncn1", "note": "(configuration not stated)", "Potency": "inconclusive: 89.1 µM [inhibitor, single point]"}, {"smiles": "O=C1N2CCCC2CN1C1CCN(Cc2ccccc2)CC1", "note": "(configuration not stated)", "Potency": "inconclusive: 126 µM [inhibitor, single point]"}, {"smiles": "COc1ccc(CNC(=O)CCC2CCCN(C(=O)CN3CCOC3=O)C2)c(OC)c1", "note": "(configuration not stated)", "activity change, negative = cytotoxicity": "inactive: -17.4%"}, {"smiles": "CC1Oc2ccc(NC(=O)c3ccc(F)cc3F)cc2CN(Cc2ccc(Cl)cc2)C1=O", "note": "(configuration not stated)", "Potency": "inconclusive: 44.7 µM [inhibitor, partial curve, poor fit]"}, {"smiles": "COc1ccc(-c2noc([C@@H](C)NC(=O)c3nc4ccccc4s3)c2C(=O)O)cc1", "Potency": "inconclusive: 25.1 µM [inhibitor, partial curve, poor fit]"}, {"smiles": "CN(C)C(=O)N1CCn2nc(CNC(=O)c3cc4ccccc4n3C)cc2C1", "activity change, negative = cytotoxicity": "inactive: -32.7%"}, {"smiles": "F[C@@H]1CN(Cc2ccc(C(F)(F)F)cc2)C[C@@H]1OCc1nc2ncccc2[nH]1", "Potency": "inconclusive: 39.8 µM [inhibitor, full curve]"}, {"smiles": "CCOC(=O)C1CCCN(C(=O)c2cc3c(s2)CN(C2CCCC2)C3)C1", "note": "(configuration not stated)", "Potency": "inconclusive: 50.1 µM [inhibitor, partial curve, poor fit]"}, {"smiles": "O=C(CCN1CCCCO1)N1CCOC(CC2CCCCC2)C1", "note": "(configuration not stated)", "activity change, negative = cytotoxicity": "inactive: -10.3%"}, {"smiles": "CN(C)CCNC(=O)c1nc2nc(-c3ccccc3)c(-c3cccc(F)c3)cc2n1C", "Potency": "active: 50.1 µM"}, {"smiles": "O=C(NCCc1ccccc1)c1nc2sccn2c1-c1cccnc1", "activity change, negative = cytotoxicity": "inactive: -18.7%"}, {"smiles": "O=C(C[C@@H]1CCNC[C@@H]1Cc1cc(CSc2ccccc2)on1)Nc1ccccc1", "Potency": "active: 44.7 µM"}, {"smiles": "COc1ccc(NC(=O)N[C@H]2[C@H](O)[C@@H](Oc3ccccc3)[C@@H]3OC[C@H]2O3)cc1", "Potency": "inconclusive: 126 µM [inhibitor, single point]"}, {"smiles": "OC1CC(c2cc(NCCCn3ccc4ccccc43)ncn2)C1", "note": "(configuration not stated)", "Potency": "inconclusive: 31.6 µM [inhibitor, partial curve, poor fit]"}, {"smiles": "CC(=O)Nc1cccc(OCc2nc3c(n2Cc2ccccc2)C(=O)N(Cc2ccccc2F)CCN3)c1", "Potency": "inconclusive: 63.1 µM [inhibitor, partial curve, poor fit]"}, {"smiles": "O=C(NC1CC1)c1ccccc1OC1CN(Cc2ccc(F)cc2F)C1", "Potency": "inconclusive: 63.1 µM [inhibitor, partial curve, poor fit]"}, {"smiles": "O=C1NCCCCCN(S(=O)(=O)c2ccc3c(c2)CCC3)[C@H]2CCCC[C@@H]12", "Potency": "inconclusive: 79.4 µM [inhibitor, partial curve, poor fit]"}, {"smiles": "COc1ccccc1Nc1ccnc(N2CCCC(C(=O)N3CCCCC3)C2)n1", "note": "(configuration not stated)", "Potency": "active: 35.5 µM"}, {"smiles": "C=CCS(=O)(=O)N1CCCC(CCc2cccc(OC)c2)C1", "note": "(configuration not stated)", "Potency": "inconclusive: 28.2 µM [inhibitor, full curve, poor fit]"}, {"smiles": "O=C(c1cccc(OC2CN(Cc3cccc(F)c3F)C2)c1)N1CCOCC1", "Potency": "inconclusive: 50.1 µM [inhibitor, partial curve, poor fit]"}, {"smiles": "COC(=O)N1CCCC(N2C(=O)c3c(c(C)nn3-c3ccccc3)C2C)C1", "note": "(configuration not stated)", "Potency": "inconclusive: 50.1 µM [inhibitor, partial curve, poor fit]"}, {"smiles": "CC1CCN(CC2CCCN(C(=O)COc3ccc(F)cc3)CC2)CC1", "note": "(configuration not stated)", "activity change, negative = cytotoxicity": "inactive: -25.5%"}, {"smiles": "O=C(NC1CCN(c2cc(-c3ccc(F)cc3)[nH]n2)CC1)c1ccc(F)cc1F", "Potency": "inconclusive: 28.2 µM [inhibitor, full curve]"}, {"smiles": "O=C(CC1CCCC1)N1CCC2(CC1)CC(N(Cc1ccc(F)cc1)C1CC1)CCO2", "note": "(configuration not stated)", "Potency": "active: 44.7 µM"}, {"smiles": "COc1cccc(-c2nc(C3CC(=O)N(c4ccc(F)cc4)C3)no2)c1", "note": "(configuration not stated)", "Potency": "inconclusive: 89.1 µM [inhibitor, single point]"}, {"smiles": "O=C(Nc1ccc(-c2nnc3n2CCCC3)cc1)c1ccn[nH]1", "activity change, negative = cytotoxicity": "inactive: 11%"}, {"smiles": "O=C(N1CCN(Cc2ccccc2)CC(O)C1)C1(N2CCCC2)CCCC1", "note": "(configuration not stated)", "Potency": "inconclusive: 89.1 µM [inhibitor, single point]"}, {"smiles": "O=C1CO[C@H]2CN(Cc3ncc[nH]3)C[C@H]2N1Cc1ccccc1", "activity change, negative = cytotoxicity": "inactive: 3.28% [at 172 µM]"}, {"smiles": "COc1cccc(-c2cc(C(=O)Nc3ccc(F)cc3)c3cnn(C)c3n2)c1", "Potency": "inconclusive: 89.1 µM [inhibitor, partial curve, poor fit]"}, {"smiles": "Cc1cccc(C(=O)N2CCCC(N3CCN(c4cccc(C(F)(F)F)c4)CC3)C2)c1", "note": "(configuration not stated)", "Potency": "inconclusive: 20 µM [inhibitor, full curve]"}, {"smiles": "O=C(COc1ccc(F)cc1)N1CCCC(c2noc(COc3ccccc3)n2)C1", "note": "(configuration not stated)", "Potency": "inconclusive: 50.1 µM [inhibitor, partial curve, poor fit]"}, {"smiles": "CC(C)CCN1CCn2c(nnc2-c2cccnc2)C1", "Potency": "inactive"}, {"smiles": "Cc1cc2c(-c3ccccc3)nc(-c3c(C)noc3C)cc2[nH]1", "Potency": "inconclusive: 70.8 µM [inhibitor, partial curve, poor fit]"}, {"smiles": "CCOc1ccccc1NC(=O)Cn1c(N2CCC(C)CC2)nc(C)cc1=O", "Potency": "inconclusive: 39.8 µM [inhibitor, partial curve, poor fit]"}, {"smiles": "O=C(Nc1cc(F)cc(F)c1)N1CCC(CCNC(=O)C2(c3ccccc3)CC2)CC1", "Potency": "active: 50.1 µM"}, {"smiles": "CC(C)CC(=O)N1C(C(=O)NCC2CCCO2)COC12CCCC(C)C2", "note": "(configuration not stated)", "activity change, negative = cytotoxicity": "inactive: -1.4%"}, {"smiles": "O=C(Nc1ccc(F)cc1F)c1cnc(-c2ccc(F)cc2)nc1-c1ccncc1", "activity change, negative = cytotoxicity": "inactive: -22.2%"}, {"smiles": "C#CCNC(=O)CC[C@H]1CNC(=O)[C@@H]2[C@@H](CCN2Cc2ncc[nH]2)N1C", "activity change, negative = cytotoxicity": "inactive: -1.69% [at 172 µM]"}, {"smiles": "O[C@H]1CC[C@@H](Cc2cc(-c3ccccc3)on2)O[C@@H]1CNC1CCNCC1", "Potency": "inconclusive: 100 µM [inhibitor, partial curve, poor fit]"}, {"smiles": "C[C@@]12C(=O)N(CC3CC3)c3ccccc3[C@@H]1[C@@H](C(N)=O)CN2C(=O)c1ccc(F)cc1", "Potency": "inconclusive: 25.1 µM [inhibitor, partial curve, poor fit]"}]}]}
